According to publication PMC7904728:
No constants are given. Whether binding was seen depends on the method and setting. For some of these results: Binding seen in cells or lysates may run through a third protein. Some results given as binding are weak or reduced against the parent protein; the word gives no strength.

Protein sequences, listed by entry. Tags and fused reporters are not part of them. Lines headed by an entry give the natural chain unless they say otherwise; changes in a name come on top. Chains listed by the source or under a name are the forms on record and can include a tag or linker. Residues count along the entry.
UniProt P35637: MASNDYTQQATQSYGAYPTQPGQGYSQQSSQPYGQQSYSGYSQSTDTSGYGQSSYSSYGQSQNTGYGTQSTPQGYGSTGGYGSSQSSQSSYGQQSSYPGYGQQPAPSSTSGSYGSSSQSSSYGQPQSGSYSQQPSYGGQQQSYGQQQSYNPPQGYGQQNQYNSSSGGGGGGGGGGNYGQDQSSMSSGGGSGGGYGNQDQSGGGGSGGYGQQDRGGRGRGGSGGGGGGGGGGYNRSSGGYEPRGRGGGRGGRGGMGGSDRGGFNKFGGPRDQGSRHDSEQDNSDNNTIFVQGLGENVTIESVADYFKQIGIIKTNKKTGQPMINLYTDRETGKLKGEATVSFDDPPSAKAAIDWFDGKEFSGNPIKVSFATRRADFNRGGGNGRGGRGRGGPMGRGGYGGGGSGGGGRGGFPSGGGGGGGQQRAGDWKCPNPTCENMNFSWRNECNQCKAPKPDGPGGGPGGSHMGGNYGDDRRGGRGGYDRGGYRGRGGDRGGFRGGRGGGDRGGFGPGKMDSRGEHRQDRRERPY
UniProt Q13283: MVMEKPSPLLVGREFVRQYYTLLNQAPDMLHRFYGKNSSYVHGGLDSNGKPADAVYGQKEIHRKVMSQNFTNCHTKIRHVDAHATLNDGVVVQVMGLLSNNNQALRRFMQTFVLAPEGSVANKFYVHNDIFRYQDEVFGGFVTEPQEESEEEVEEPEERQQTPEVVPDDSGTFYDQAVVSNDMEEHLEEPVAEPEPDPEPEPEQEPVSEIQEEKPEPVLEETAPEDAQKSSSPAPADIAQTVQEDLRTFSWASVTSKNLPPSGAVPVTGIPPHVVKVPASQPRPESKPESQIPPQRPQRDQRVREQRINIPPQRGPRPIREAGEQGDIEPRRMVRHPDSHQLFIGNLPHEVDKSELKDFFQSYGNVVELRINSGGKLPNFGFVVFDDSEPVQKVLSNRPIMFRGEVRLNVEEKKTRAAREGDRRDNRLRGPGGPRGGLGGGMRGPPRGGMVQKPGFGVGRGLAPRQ
UniProt Q13148: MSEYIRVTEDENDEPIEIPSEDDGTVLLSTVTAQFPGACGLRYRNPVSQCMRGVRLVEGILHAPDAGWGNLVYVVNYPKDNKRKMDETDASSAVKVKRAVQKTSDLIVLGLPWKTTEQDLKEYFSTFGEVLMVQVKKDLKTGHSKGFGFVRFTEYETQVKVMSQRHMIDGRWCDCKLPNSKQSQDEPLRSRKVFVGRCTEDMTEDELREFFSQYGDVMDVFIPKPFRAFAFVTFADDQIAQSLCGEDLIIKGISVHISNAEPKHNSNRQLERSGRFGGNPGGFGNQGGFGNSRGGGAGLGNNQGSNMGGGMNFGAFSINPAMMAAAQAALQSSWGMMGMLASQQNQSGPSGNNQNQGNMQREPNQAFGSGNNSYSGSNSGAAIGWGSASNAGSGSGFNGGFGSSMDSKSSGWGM
UniProt P67809: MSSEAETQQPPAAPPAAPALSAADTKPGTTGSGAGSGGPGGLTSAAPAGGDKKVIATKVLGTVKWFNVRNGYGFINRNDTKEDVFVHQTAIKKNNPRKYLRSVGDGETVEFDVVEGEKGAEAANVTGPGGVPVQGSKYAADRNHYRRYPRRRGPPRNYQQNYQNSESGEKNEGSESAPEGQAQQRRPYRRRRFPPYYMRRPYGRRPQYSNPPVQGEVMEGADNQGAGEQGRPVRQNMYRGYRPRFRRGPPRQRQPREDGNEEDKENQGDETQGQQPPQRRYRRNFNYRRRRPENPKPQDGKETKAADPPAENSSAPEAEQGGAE
UniProt Q15811: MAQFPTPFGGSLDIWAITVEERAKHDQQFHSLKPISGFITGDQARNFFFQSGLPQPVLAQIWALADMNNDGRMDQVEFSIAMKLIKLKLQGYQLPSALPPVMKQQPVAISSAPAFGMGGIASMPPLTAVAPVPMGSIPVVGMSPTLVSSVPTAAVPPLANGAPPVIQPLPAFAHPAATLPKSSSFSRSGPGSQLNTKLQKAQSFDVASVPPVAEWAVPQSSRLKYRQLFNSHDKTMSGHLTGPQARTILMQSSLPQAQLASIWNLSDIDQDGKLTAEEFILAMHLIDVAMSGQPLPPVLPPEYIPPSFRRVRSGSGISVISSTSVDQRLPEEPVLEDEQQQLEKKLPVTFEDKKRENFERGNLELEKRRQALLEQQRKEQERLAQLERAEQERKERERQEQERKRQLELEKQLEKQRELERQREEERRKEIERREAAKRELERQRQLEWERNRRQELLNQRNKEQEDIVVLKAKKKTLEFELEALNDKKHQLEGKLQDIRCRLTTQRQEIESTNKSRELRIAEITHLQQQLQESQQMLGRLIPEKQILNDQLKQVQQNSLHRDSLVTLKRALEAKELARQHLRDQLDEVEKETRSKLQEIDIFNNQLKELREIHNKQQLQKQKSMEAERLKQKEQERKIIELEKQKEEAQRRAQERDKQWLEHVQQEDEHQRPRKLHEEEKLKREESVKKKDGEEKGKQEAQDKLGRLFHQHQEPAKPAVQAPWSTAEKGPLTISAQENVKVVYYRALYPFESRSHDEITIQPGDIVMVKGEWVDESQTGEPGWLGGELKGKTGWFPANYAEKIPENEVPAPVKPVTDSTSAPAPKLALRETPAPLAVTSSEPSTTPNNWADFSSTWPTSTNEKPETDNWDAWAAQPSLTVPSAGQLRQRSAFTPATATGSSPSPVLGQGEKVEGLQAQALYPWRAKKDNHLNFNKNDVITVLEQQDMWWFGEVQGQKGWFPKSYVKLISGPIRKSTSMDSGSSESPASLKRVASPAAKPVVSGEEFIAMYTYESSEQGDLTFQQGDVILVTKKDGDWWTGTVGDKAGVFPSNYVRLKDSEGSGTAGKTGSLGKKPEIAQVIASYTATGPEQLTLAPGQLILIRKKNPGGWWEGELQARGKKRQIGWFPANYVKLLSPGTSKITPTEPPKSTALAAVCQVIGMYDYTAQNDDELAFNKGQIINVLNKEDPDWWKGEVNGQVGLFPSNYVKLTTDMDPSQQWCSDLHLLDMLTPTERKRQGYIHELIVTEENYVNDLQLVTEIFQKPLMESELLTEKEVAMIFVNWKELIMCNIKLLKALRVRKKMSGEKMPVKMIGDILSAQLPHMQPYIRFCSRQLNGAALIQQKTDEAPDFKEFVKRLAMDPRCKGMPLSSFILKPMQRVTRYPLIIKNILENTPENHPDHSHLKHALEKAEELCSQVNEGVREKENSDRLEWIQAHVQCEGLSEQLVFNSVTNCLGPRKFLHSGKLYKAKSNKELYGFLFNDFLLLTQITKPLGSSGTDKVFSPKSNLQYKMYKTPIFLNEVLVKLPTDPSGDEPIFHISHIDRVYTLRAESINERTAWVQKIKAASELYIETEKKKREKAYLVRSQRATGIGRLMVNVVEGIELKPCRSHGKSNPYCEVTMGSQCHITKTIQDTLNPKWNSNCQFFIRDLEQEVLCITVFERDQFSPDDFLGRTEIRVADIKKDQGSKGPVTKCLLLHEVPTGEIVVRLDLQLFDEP
full-length ITSN1s fused to GFP: residues 1-1220 of Q15811
GFP-fused ITSN1_(CCR-SH3): residues 310-1220 of Q15811
GST-ITSN1SH3: residues 730-1220 of Q15811

Key:
[1] = target: FUS used as bait in the microtubule bench (UniProt P35637); test: microtubule bench assay; HeLa cells co-transfected; bait fused to RFP and the microtubule-binding domain of Tau (MBD) and so held on microtubules, prey fused to GFP; fixed 24 h post transfection; Pearson correlation coefficient of red and green fluorescence along lines crossing microtubules, at least twenty lines from three experiments
[2] = target: G3BP1 used as bait in the microtubule bench (UniProt Q13283); test: as above
SAM68-RFP-MBD = SAM68-RFP-MBD (UniProt Q07666); test: as above
TDP43-RFP-MBD = TDP43-RFP-MBD (UniProt Q13148); test: as above
[3] = target: YB1 used as bait in the microtubule bench (UniProt P67809); test: as above
TDP43-His (human) = TDP43-His (human) (UniProt Q13148); test: pull-down; 1 µg SAM68-His or TDP43-His immobilised on Ni-NTA-agarose in 8 M urea, washed without urea, incubated with 1 µg GST-SRCSH3, GST-ITSN1SH3 or GST in 25 mM Tris-HCl pH 7.4, 150 mM NaCl, 10% glycerol, 1% Triton-X100 at 4 °C for 1 h; Coomassie staining; both purified
[4] = target: endogenous SAM68 (HeLa cells) (human (endogenous in HeLa)) (UniProt Q07666); test: proximity ligation; Duolink PLA on fixed, permeabilised HeLa cells with anti-ITSN1 and anti-SAM68 antibodies; endogenous proteins

| Substance | binding (SAM68-RFP-MBD) | binding (TDP43-RFP-MBD) | also measured |
| --- | --- | --- | --- |
| GFP-fused ITSN1SH3 (from UniProt Q15811-2 730-1220) (domain or fragment) | binds | no binding | binding [1]: no binding; binding [2]: no binding; binding [3]: no binding |
| GFP-fused ITSN1_(CCR-SH3) (from UniProt Q15811-2 310-1220) (domain or fragment) | binds |  |  |
| GST-ITSN1SH3 (from UniProt Q15811-2 730-1220) (domain or fragment) |  |  | binding (TDP43-His (human)): no binding (tested: 1 µg) |
| endogenous ITSN1 (HeLa cells) (from UniProt Q15811 1-1721) |  |  | binding [4]: binds |
| full-length ITSN1s fused to GFP (from UniProt Q15811-2 1-1220) | binds | no binding |  |
